Test results reported in PubChem BioAssay AID2147 (National Center for Advancing Translational Sciences (NCATS), 2009).
Screen size: about 230,000 compounds; about 3,600 (1.6%) were called active. This list was built around the results that the source calls inconclusive (neither active nor inactive); the mix of calls is not that of the screen. Calls come from the whole dose curve; as a rule, active = well fitted inhibition curve with a large enough effect (not every such curve was filed as active); inconclusive = small, poorly fitted or top-dose-only effect, or another doubt; inactive = no such curve, though single readings can be large or run the other way. A potency beside an inconclusive call is a rough fit, not a confirmed value.

The compounds below were run against Lysine-specific demethylase 4E (Homo sapiens) (UniProt B2RXH2) (assay: qHTS Assay for Inhibitors of Human Jumonji Domain Containing 2E (JMJD2E)). Conditions: JMJD2E catalytic domain, FDH-coupled NADH fluorescence (FDH is formaldehyde dehydrogenase); series mostly up to 57.1 µM.
UniProt B2RXH2, sequence (B2RXH2 whole entry, looked up, the tested form may be a part): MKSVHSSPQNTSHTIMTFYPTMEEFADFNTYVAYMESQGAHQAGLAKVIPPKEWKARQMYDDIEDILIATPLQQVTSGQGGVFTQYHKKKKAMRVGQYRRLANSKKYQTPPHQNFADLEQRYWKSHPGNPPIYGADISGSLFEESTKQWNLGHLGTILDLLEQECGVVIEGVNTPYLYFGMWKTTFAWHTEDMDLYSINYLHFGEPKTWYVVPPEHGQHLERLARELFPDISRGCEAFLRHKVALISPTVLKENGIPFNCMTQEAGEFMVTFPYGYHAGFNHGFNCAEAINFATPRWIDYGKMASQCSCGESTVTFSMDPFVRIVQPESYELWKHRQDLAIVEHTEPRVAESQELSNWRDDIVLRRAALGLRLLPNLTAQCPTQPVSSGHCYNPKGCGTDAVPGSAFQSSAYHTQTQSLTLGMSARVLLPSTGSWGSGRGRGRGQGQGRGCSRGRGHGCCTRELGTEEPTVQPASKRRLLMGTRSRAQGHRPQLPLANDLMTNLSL
Note: nearly all actives have a fitted effect of over 50% in size.
Potency is the fitted concentration of half-maximal effect; tags give direction and shape of the fitted curve.

| SMILES | Potency |
| --- | --- |
| CNC(=S)N(CCc1c(C)[nH]c2ccc(C)cc12)Cc1cccs1 | inactive |
| COc1ccc(NC(=O)C(c2cc3c(cc2[N+](=O)[O-])OCO3)N(C)c2ccccc2)cc1 (stereo not drawn) | inconclusive: 28.2 µM [inhibitor, single point] |
| Cc1ccc(C(=O)/C=C/c2c[nH]c3ccccc23)cc1 | inconclusive: 17.8 µM [inhibitor, partial curve] |
| CC(C)(C)c1cc[n+](-c2nc([O-])sc2C=O)cc1 | inactive |
| FC(F)(F)c1ccccc1-c1nc(Nc2ccncc2)c2ccccc2n1 | inconclusive: 35.5 µM [inhibitor, single point] |
| COC(=O)c1scc(S(=O)(=O)C(C)(C)C)c1N | inconclusive: 39.8 µM [inhibitor, single point] |
| O=C(COc1ccccc1Cl)N(Cc1ccco1)C1CCS(=O)(=O)C1 (stereo not drawn) | inactive |
| COc1cc(C2CC(=O)N(c3ccc(C)cc3)C(=O)C2)cc(OC)c1OC | inactive |
| NCCC[C@@H](CC(=O)N[C@@H]1CCNC[C@H]1C(=O)N[C@H](CC(=O)N[C@@H](CCC(=O)O)CC(=O)O)Cc1ccccc1)NC(=O)C[C@H](CO)NC(=O)[C@@H]1CNCC[C@H]1N | inconclusive: 39.8 µM [inhibitor, single point] |
| CCCCOc1ccc(Nc2nc(C)cc(C)c2C#N)cc1 | inconclusive: 39.8 µM [inhibitor, single point] |
| Cc1c(C)c2ccc(OCC(=O)N(C)C)c(C)c2oc1=O | inconclusive: 31.6 µM [inhibitor, partial curve] |
| Cc1sc2c(c1C)c(=O)nc1n2Cc2ccccc2-1 | inconclusive: 15.8 µM [inhibitor, partial curve] |
| CN(C)c1ccc(N=Cc2ccco2)cc1 | inactive |
| CN(C)S(=O)(=O)c1cccc(NC(=O)CNC2CCCCC2)c1 | inconclusive: 25.1 µM [inhibitor, single point] |
| CC1CCCc2sc3nc(NCc4ccco4)n4ncnc4c3c21 (stereo not drawn) | inconclusive: 3.16 µM [inhibitor, single point] |
| CCOC(=O)N1CCC(NC(=O)C2CCN(C(=O)N3CC(C)Oc4ccc(C)cc43)CC2)CC1 (stereo not drawn) | inactive |
| COc1cnc(SC)nc1Nc1ccc(C#N)cc1 | inconclusive: 35.5 µM [inhibitor, single point] |
| COc1ccc(-c2nc(C#N)c(N3CC(C)OC(C)C3)o2)cc1OC (stereo not drawn) | inconclusive: 3.55 µM [inhibitor, full curve] |
| Cc1cc(N2CCN(C)CC2)nc2ccc(NC(=O)c3cccnc3Cl)cc12 | inactive |
| O=S(=O)(c1ccc(Cl)cc1)N1CCC(O)(CN2CCN(Cc3ccccc3)CC2)CC1 | inactive |
| CCc1nnc(NS(=O)(=O)c2ccc(NC(=S)NC(=O)/C=C/c3ccc(OC)cc3)cc2)s1 | inactive |
| CCCCCCCN1C2=NCCCN2c2ccccc21 | inactive |
| Cn1c(N)c(-c2nc3cccnc3n2C)sc1=S | inconclusive: 22.4 µM [inhibitor, partial curve, poor fit] |
| CC1CCN(C2CCN(C(=O)c3ccccc3F)CC2)CC1 | inconclusive: 39.8 µM [inhibitor, single point] |
| COc1ccc(C(=O)Nc2nc3ccc4nc(C)sc4c3s2)cc1 | inconclusive: 2.82 µM [inhibitor, partial curve] |

| SMILES | Potency |
| --- | --- |
| CCc1c(C)[nH]n(-c2ccc(Oc3ccccc3)c(S(=O)(=O)O)c2)c1=O | inconclusive: 39.8 µM [inhibitor, single point] |
| Cc1nnsc1-c1nnc(SCC(=O)c2ccccc2)n1C1CC1 | inconclusive: 35.5 µM [inhibitor, partial curve] |
| COc1ccc(/C=N/NC(=O)c2ccco2)cc1OCc1ccccc1 | inconclusive: 25.1 µM [inhibitor, single point] |
| Cc1ccc(-c2nc(CN3CCCCC3)cc(CN3CCCCC3)c2O)cc1 | inconclusive: 35.5 µM [inhibitor, partial curve] |
| Cc1ccc(OCC(=O)c2cc(C)c(C)cc2C)c([N+](=O)[O-])n1 | inactive |
| CCn1c(-c2nn(-c3ccc(C)cc3)ccc2=O)n[nH]c1=S | inconclusive: 10 µM [inhibitor, partial curve] |
| Cc1cc(S(=O)(=O)N2CCN(c3c(C)cccc3C)CC2)ccc1F | inactive |
| CC(C)c1nc(NCC2CCCO2)c(C#N)c2c1COC(C)(C)C2 (stereo not drawn) | inconclusive: 31.6 µM [inhibitor, partial curve] |
| COC(=O)c1ccc(C23CC2(C(NP(=O)(c2ccccc2)c2ccccc2)c2ccccc2)C3)cc1 (stereo not drawn) | inconclusive: 20 µM [inhibitor, partial curve] |
| O=c1oc2cc(O)ccc2c2oc3cc(O)ccc3c12 | inconclusive: 10 µM [inhibitor, partial curve] |
| O=C(CN(CCc1ccccc1)C(=O)CNS(=O)(=O)c1ccccc1)NCc1ccco1 | inactive |
| S=c1[nH]nc(-c2ccccc2Cl)n1CC1CCCO1 (stereo not drawn) | inactive |
| c1ccc(-n2ncc3c(NCC4CCCO4)ncnc32)cc1 (stereo not drawn) | inconclusive: 31.6 µM [inhibitor, partial curve] |
| Nc1c2c(nc3ccccc13)N(c1ccccc1)CC2 | inconclusive: 28.2 µM [inhibitor, partial curve] |
| Cc1noc(C)c1S(=O)(=O)N1CCC2(CC1)OCCO2 | inactive |
| Cc1ccc2ccc(C)[n+](CCCS(=O)(=O)[O-])c2c1 | inconclusive: 22.4 µM [inhibitor, partial curve] |
| Cc1ccc(NC(=O)CN2C(=O)N/C(=C/c3cccn3-c3ccc(C(=O)O)cc3)C2=O)cc1 | inconclusive: 39.8 µM [inhibitor, single point] |
| CC(C)(C)CC(=O)NCc1ccc(F)cc1 | inactive |
| O=S(=O)(Nc1nc2ccccc2nc1NCCO)c1cccc(Cl)c1 | inconclusive: 25.1 µM [inhibitor, partial curve] |
| COc1ccc2c(c1OC)C(=O)N(c1nccs1)C2 | inconclusive: 35.5 µM [inhibitor, partial curve] |
| O=C(O)c1cn(-c2ccc(F)cc2)c(=O)c2ccccc12 | inconclusive: 25.1 µM [inhibitor, partial curve] |
| O=C(CCc1nnc(-c2ccc3c(c2)OCO3)o1)N(Cc1ccncc1)CC1CCCO1 (stereo not drawn) | inconclusive: 28.2 µM [inhibitor, partial curve] |
| COCc1c(C(=O)OCC(=O)c2c(N)n(CC(C)C)c(=O)n(C)c2=O)oc2ccccc12 | inconclusive: 39.8 µM [inhibitor, single point] |
| CN1CCN(C(=O)c2cc3sc4ccccc4c3s2)CC1 | inconclusive: 31.6 µM [inhibitor, partial curve] |
| CCC[n+]1c(C)sc2c(OC)ccc(OC)c21 | inconclusive: 22.4 µM [inhibitor, partial curve] |

| SMILES | Potency |
| --- | --- |
| N#Cc1ccc(Cl)cc1NC(=O)COC(=O)c1ccc2c(c1)OCCO2 | inconclusive: 39.8 µM [inhibitor, single point] |
| CCOC(=O)N1CCN(C(=O)C2CCN(CC3CCCCC3)CC2)CC1 | inactive |
| CCN(CC)S(=O)(=O)c1ccc(S(=O)(=O)N(CC(=O)Nc2ccccc2)Cc2ccco2)cc1 | inactive |
| Cc1ccc(N(c2ncnc(N)c2[N+](=O)[O-])C2CCCCC2)cc1 | inactive |
| Cc1ccc(OCC(=O)N/N=C/c2cccn2C)cc1 | inactive |
| COn1c2c(c3c4nonc4ccc31)CCCC2 | inconclusive: 25.1 µM [inhibitor, single point] |
| CNC(=S)N/N=C(\C)c1ccc2c(c1)OCCO2 | inactive |
| Fc1ccccc1N1CCN(Cc2cccnc2)CC1 | inconclusive: 39.8 µM [inhibitor, single point] |
| CCOC(=O)N1CCC(N2CCN(S(=O)(=O)c3ccc(NC(C)=O)cc3)CC2)CC1 | inconclusive: 39.8 µM [inhibitor, single point] |
| CC1=CC(C)C2COC(c3ccc[n+](C)c3)C1C2C (stereo not drawn) | inactive |
| CSc1nc(C)c2c(n1)N(c1ccc(O)cc1)CC2 | inconclusive: 39.8 µM [inhibitor, single point] |
| Cc1[nH]c2ccccc2c1C(=O)COC(=O)Cn1c(C(F)(F)F)nc2ccccc21 | inactive |
| CC(=O)Oc1ccc(C(=O)Cc2ccc3ccccc3n2)c(O)c1C | inactive |
| Cc1nc2ccccn2c1C(=O)N/N=C/c1ccc2c(c1)OCO2 | inconclusive: 31.6 µM [inhibitor, single point] |
| CC(C)Oc1ccc2c(=O)c3cc(C(=O)O)ccc3oc2c1 | inconclusive: 28.2 µM [inhibitor, partial curve] |
| CC1(C)CC(=O)c2cc(OCC(=O)O)ccc2O1 | inconclusive: 31.6 µM [inhibitor, partial curve] |
| Cc1cc2ccccc2c(=O)n1CC(=O)NCC(=O)N(C)Cc1ccccc1 | inconclusive: 39.8 µM [inhibitor, single point] |
| CCOCC(=O)Nc1c(C(=O)Nc2ccc(OC)cc2OC)oc2ccccc12 | inconclusive: 17.8 µM [inhibitor, partial curve] |
| O=C(c1cccs1)N1CCN(S(=O)(=O)c2cccs2)CC1 | inactive |
| CCN1CCN(C(=S)Nc2ccc3nc(N4CCN(C)CC4)cc(C)c3c2)CC1 | inconclusive: 12.6 µM [inhibitor, partial curve] |
| CCOC(=O)CSc1nc(C2CC2)nc2ccccc12 | inconclusive: 25.1 µM [inhibitor, single point] |
| CCCC(=O)OCC(=O)Nc1ccc2c(c1)OCO2 | inactive |
| CSc1nc2ccc3nc(NC(=O)c4ccc(C)cc4)sc3c2s1 | inconclusive: 3.98 µM [inhibitor, full curve] |
